{"source": "PubChem BioAssay AID686979", "about": "(National Center for Advancing Translational Sciences (NCATS), 2013)", "note": "Hit rate of the full screen: of about 420,000 compounds, about 50,000 (12%) were called active. Inconclusive means that the source gave no clear call. Such entries were picked first, then a sample of the others. Calls follow the shape of the dose curve; as a rule, active = well fitted inhibition curve with a large enough effect; inconclusive = small, poorly fitted or top-dose-only effect; inactive = flat fitted curve, though single readings scatter. No potency is given beside an inconclusive call; the fits are too rough. % is scaled to controls: 0 for no effect and ±100 for the full control effect; potency is read from the fitted curve at half-maximal effect; tags tell the direction and shape of the fitted curve.", "data": [{"test": "qHTS for Inhibitors of human tyrosyl-DNA phosphodiesterase 1 (TDP1): qHTS in cells in presence of CPT; also: nearly all actives have a fitted effect of over 55% in size", "details": "chicken DT40 Tdp1-/-;hTDP1 cells + 20 nM CPT, ATP luminescence, 48 h; activity change, negative = growth inhibition: at 46.2 µM (top of the series) unless noted", "how_it_was_run": "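Chicken DT40 Tdp1-/- cells complemented with human TDP1, 400 cells/well, exposed to compounds plus 20 nM camptothecin for at least 48 h at 37 C; viability read as ATP content by CellTiter-Glo luminescence.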", "values": [{"molecule": "O=C(Nc1ccc(N2CCN(C(=O)c3ccco3)CC2)cc1)c1ccccc1", "activity change, negative = growth inhibition": "inactive: 2.66%"}, {"molecule": "CCOC(=O)c1c(C)[nH]c(C(C)=NNC(=O)Cn2nc(C)cc2C)c1C", "Potency": "inconclusive [inhibitor, partial curve]"}, {"molecule": "CCN(CC)S(=O)(=O)c1ccc(OC)c(N)c1", "activity change, negative = growth inhibition": "inactive: -0.166%"}, {"molecule": "COc1ccccc1C(=O)NNC(=O)c1ccc(NC(=O)c2ccccc2)cc1", "activity change, negative = growth inhibition": "inactive: -24.4%"}, {"molecule": "O=C(NC1CCCCC1)C(c1cccnc1)N(CCc1ccccc1)C(=O)Cc1cccs1", "note": "(centres undefined)", "Potency": "inconclusive [inhibitor, partial curve]"}, {"molecule": "COc1ccc(S(=O)(=O)Nc2cc(SCC(=O)O)c(O)c3ccccc23)cc1", "Potency": "active: 3.26 µM"}, {"molecule": "C(#Cc1ccccc1)C[N+]1(CC#Cc2ccccc2)CCCCC1", "Potency": "active: 1.84 µM"}, {"molecule": "COC(=O)[C@]12CCCCC=C1N(CCC1=CCCCC1)C(=O)[C@H](CC(=O)N1CCN(C(=O)c3ccco3)CC1)C2", "Potency": "inconclusive [inhibitor, single point]"}, {"molecule": "COC(=O)c1cccnc1-n1c(=O)c2cccnc2n(CC(=O)Nc2cccc(C(F)(F)F)c2)c1=O", "activity change, negative = growth inhibition": "inactive: -27.1%"}, {"molecule": "CCOc1cc(C2CC(=O)Nc3c2c(C)nn3-c2nc(C)cc(C)n2)ccc1O", "note": "(centres undefined)", "Potency": "inconclusive [inhibitor, single point]"}, {"molecule": "COc1ccccc1N1CCN(C(=O)c2oc3ccccc3c2N)CC1", "Potency": "inconclusive [inhibitor, single point]"}, {"molecule": "CS(=O)(=O)N1CCc2ccc(NC(=O)C3CCCO3)cc2C1", "note": "(centres undefined)", "activity change, negative = growth inhibition": "inactive: 2.35%"}, {"molecule": "COc1ccc(/C=C(\\C#N)c2nc(-c3cc4ccccc4oc3=O)cs2)cc1OC", "activity change, negative = growth inhibition": "inactive: 3.58%"}, {"molecule": "O=C(c1ccc(CS(=O)(=O)c2c(Cl)cccc2Cl)o1)N1CCN(c2ccccn2)CC1", "Potency": "inconclusive [inhibitor, single point]"}, {"molecule": "COc1ccc(C2C3=C(CC(C)(C)CC3=O)Oc3ncn(Cc4ccccc4)c(=N)c32)cc1", "note": "(centres undefined)", "activity change, negative = growth inhibition": "inconclusive: -32.1% [inhibitor]"}, {"molecule": "O=C1CCS/C(=N\\N=C\\c2ccc(Cl)cc2Cl)N1", "activity change, negative = growth inhibition": "inactive: 15.5%"}, {"molecule": "CC(=O)c1ccc(OCc2cc(C(=O)N3CCC(c4ccncc4)CC3)no2)cc1", "Potency": "active: 11.6 µM"}, {"molecule": "FC(F)(F)c1cccc(N2CCN(Cc3nnc(-c4ccccc4)o3)CC2)c1", "Potency": "inconclusive [inhibitor, single point]"}, {"molecule": "O=C(/C=C/c1ccccc1)Nc1cc(-c2nc3ccccc3o2)ccc1Cl", "Potency": "inconclusive [inhibitor, partial curve]"}, {"molecule": "Cc1cccc(C)c1NC(=O)c1c(O)c2ccccc2[nH]c1=O", "Potency": "active: 18.4 µM"}, {"molecule": "CC(/C=C/c1cccs1)=C\\C(=O)O", "activity change, negative = growth inhibition": "inactive: -16.4%"}, {"molecule": "O=C1N[C@@H](Cc2ccccc2)C(=O)N2[C@@H]3N(S(=O)(=O)c4ccccc4)c4ccccc4[C@]3(Br)C[C@@H]12", "Potency": "inconclusive [inhibitor, single point]"}, {"molecule": "O=C(N/N=C/c1cc([N+](=O)[O-])ccc1O)C(O)(c1ccccc1)c1ccccc1", "Potency": "inconclusive [inhibitor, single point]"}, {"molecule": "COc1ccccc1CNC(=O)c1cn(C)c2ccc(S(=O)(=O)N3CCCC3)cc2c1=O", "Potency": "inconclusive [inhibitor, single point]"}, {"molecule": "COc1ccc(C2/C(=C(/O)c3ccc4c(c3)CC(C)O4)C(=O)C(=O)N2CCCn2ccnc2)cc1OC", "note": "(centres undefined)", "activity change, negative = growth inhibition": "inactive: 5.29%"}, {"molecule": "Cc1ccc(S(=O)(=O)/N=C(/c2ccccc2)N2CCOCC2)c(C)c1", "activity change, negative = growth inhibition": "inactive: 2.35%"}, {"molecule": "CCOc1ccc(/C=C2\\SC(=S)N(CCC(=O)Nc3ccc(C(=O)O)cc3)C2=O)cc1", "activity change, negative = growth inhibition": "inactive: 0.222%"}, {"molecule": "COc1cccc(CC2(CO)CCCN(Cc3nc(-c4cccs4)oc3C)C2)c1", "note": "(centres undefined)", "Potency": "inconclusive [inhibitor, single point]"}, {"molecule": "Cc1ccc(OCC(=O)Nc2cccc(C)n2)c(C)c1", "activity change, negative = growth inhibition": "inactive: -11.7%"}, {"molecule": "CC(C)c1ccc(-c2noc(SCC(=O)N3CCCCC3)n2)cc1", "Potency": "inconclusive [inhibitor, single point]"}, {"molecule": "CCOC(=O)c1c(NC(=O)CN2C(=O)NC(C)(c3ccccc3)C2=O)sc(C)c1C", "note": "(centres undefined)", "Potency": "inconclusive [inhibitor, single point]"}, {"molecule": "COCCn1c(SCC(=O)c2[nH]c(C)c(C(C)=O)c2C)nc2ccccc2c1=O", "Potency": "inconclusive [inhibitor, single point]"}, {"molecule": "CCN(CC(=O)Nc1cccc(Br)c1)Cc1nc2ccccc2c(=O)[nH]1", "Potency": "active: 5.17 µM"}, {"molecule": "O=C1/C(=C/c2cccnc2)Oc2cc(OS(=O)(=O)c3ccccc3)ccc21", "Potency": "inconclusive [inhibitor, single point]"}, {"molecule": "CCOc1ccccc1CNC(=O)c1ccc(Cn2c(=O)c3cccn3c3cccnc32)cc1", "activity change, negative = growth inhibition": "inactive: -21.3%"}, {"molecule": "Cc1c(Cl)cccc1NC(=S)N/N=C/c1ccccc1Cl", "Potency": "inconclusive [inhibitor, single point]"}, {"molecule": "CCc1cccc(C)c1NC(=O)C(CC)Sc1nc2ccncc2[nH]1", "note": "(centres undefined)", "Potency": "inconclusive [inhibitor, single point]"}, {"molecule": "CCCCc1ccc(N=N/C(C(=O)Nc2ccc(NC(C)=O)cc2OC)=C(/C)O)cc1", "Potency": "inconclusive [inhibitor, single point]"}, {"molecule": "Cc1ccc(CNC(=O)C(=O)NCC2OCCN2S(=O)(=O)c2ccc(Br)cc2)cc1", "note": "(centres undefined)", "Potency": "inconclusive [inhibitor, single point]"}, {"molecule": "COc1ccc(/C=C2\\N=C3CCCCCN3C2=O)cc1OC", "activity change, negative = growth inhibition": "inactive: -10.4%"}, {"molecule": "CCCN1CCN(C(=O)C(NC(=O)c2ccco2)C(C)C)CC1", "note": "(centres undefined)", "activity change, negative = growth inhibition": "inactive: 9.78%"}, {"molecule": "CCOC(=O)C1(Cc2ccccc2C)CCCN(C(=O)c2ccc(CSC)o2)C1", "note": "(centres undefined)", "Potency": "inconclusive [inhibitor, single point]"}, {"molecule": "CCn1cc(Cl)c(C(=O)N2N=C3/C(=C/c4cccs4)CCCC3C2c2cccs2)n1", "note": "(centres undefined)", "Potency": "active: 18.4 µM"}, {"molecule": "COc1ccc(N(CC(=O)NCc2ccccc2)C(=O)CCC(=O)Nc2cc(C)ccn2)c(OC)c1", "Potency": "inconclusive [inhibitor, partial curve, poor fit]"}, {"molecule": "CCOC(=O)C1=C(N)n2c(s/c(=C\\c3ccco3)c2=O)=C(C(=O)OCC)C1c1ccco1", "note": "(centres undefined)", "Potency": "active: 5.62 µM"}, {"molecule": "Nc1ccnn1Cc1ccncc1", "activity change, negative = growth inhibition": "inactive: 7.9%"}, {"molecule": "COc1ccc(S(=O)(=O)NC2CC2)cc1Cl", "activity change, negative = growth inhibition": "inactive: 15.3%"}, {"molecule": "CN(c1ccccc1)S(=O)(=O)c1cccc(NC(=O)COc2ccccc2)c1", "Potency": "inconclusive [inhibitor, single point]"}, {"molecule": "Cn1c2ccccc2c2c(C(=O)NCC3CCCO3)cn(C3CCCC3)c(=O)c21", "note": "(centres undefined)", "activity change, negative = growth inhibition": "inactive: -23.1%"}, {"molecule": "COc1ccc(N2C(=O)C(CC(=O)Nc3ccc(F)cc3)N(CCc3ccc(OC)c(OC)c3)C2=O)cc1", "note": "(centres undefined)", "activity change, negative = growth inhibition": "inactive: -13.7%"}, {"molecule": "O=C(CC1(CC2=NS(=O)(=O)c3ccccc3N2)CCCC1)NCCc1ccccc1", "Potency": "active: 14.6 µM"}, {"molecule": "CCC(C)N1CCC2(CC1)N=c1c(c3c4c5c(C)c(O)c3c(O)c1=NC(=O)C(C)=CC=C[C@H](C)[C@H](O)[C@@H](C)[C@@H](O)[C@@H](C)[C@H](OC(C)=O)[C@H](C)[C@@H](OC)C=CO[C@@](C)(O5)C4=O)N2", "note": "(some centres undefined)", "Potency": "active: 13 µM"}, {"molecule": "Cc1ccc(NC(=O)N2CCc3c(sc4c3CCCC4)C2c2ccccc2)cc1F", "note": "(centres undefined)", "Potency": "inconclusive [inhibitor, single point]"}, {"molecule": "O=C1CC(c2ccco2)CC(O)=C1C=Nc1ccc(Br)cc1", "note": "(centres undefined)", "activity change, negative = growth inhibition": "inactive: -24.5%"}, {"molecule": "Cc1ccc(NC(=O)CN(C)C(=O)Cn2c(=O)oc3ccccc32)cc1", "activity change, negative = growth inhibition": "inactive: -6.11%"}, {"molecule": "CCOC(=O)CSc1nc2cc3c(cc2c(=O)n1CCCCCC(=O)NCc1ccc2c(c1)OCO2)OCO3", "activity change, negative = growth inhibition": "inactive: -5.98%"}, {"molecule": "Cc1[nH]c2ccccc2c1CN1CCC(CO)(Cc2ccccc2)CC1", "Potency": "active: 13 µM"}, {"molecule": "CN(CCc1ccccc1)C(=O)c1ccc(NC(=O)Cc2cccc(NC(=O)C3CCN(C(=O)C4CCCCC4)CC3)c2)cc1", "Potency": "inconclusive [inhibitor, single point]"}, {"molecule": "CN(C(=O)c1cccc(NC(=O)Cc2cccc(NC(=O)C3CCN(C(=O)c4ccccc4)CC3)c2)c1)C1CCCC1", "Potency": "inconclusive [inhibitor, single point]"}, {"molecule": "Cc1ccc2c(CC(=O)Nc3ccc(S(=O)(=O)Nc4nc(C)cc(C)n4)cc3)coc2c1", "Potency": "inconclusive [inhibitor, single point]"}, {"molecule": "COc1ccc(Br)c(Cn2c(C)c(C(=O)NCc3ccc4c(c3)OCCO4)sc2=O)c1", "Potency": "inconclusive [inhibitor, single point]"}, {"molecule": "COc1cc(C2Nc3ccccc3-c3nnc(SCc4ccc(Cl)cc4)nc3O2)ccc1OCC(=O)O", "note": "(centres undefined)", "activity change, negative = growth inhibition": "inconclusive: -34.4% [inhibitor]"}, {"molecule": "COc1cc(/C=N/Nc2ncc(C(F)(F)F)cc2Cl)cc(OC)c1OC", "Potency": "inconclusive [inhibitor, single point]"}, {"molecule": "CC1=C(C(=O)N2CCOCC2)CC(CC(=O)NCC2CCCCC2)C(=O)N1Cc1ccc(C(C)(C)C)cc1", "note": "(centres undefined)", "Potency": "active: 18.4 µM"}, {"molecule": "CC(=O)c1cc2c(cc1NC(=O)CSc1nc3ccccc3o1)OCO2", "activity change, negative = growth inhibition": "inactive: -19.3%"}, {"molecule": "Cc1cc(C)c2c(N)c(C(=O)Nc3ccccc3Cl)sc2n1", "Potency": "inconclusive [inhibitor, single point]"}, {"molecule": "CC(=O)c1cccc(OCc2cc(C(=O)NC3CCN(Cc4ccccc4)CC3)no2)c1", "Potency": "inconclusive [inhibitor, single point]"}, {"molecule": "Cc1ccc(-c2cc(C(=O)Nc3c(C)n(C)n(-c4ccccc4)c3=O)c3ccccc3n2)cc1", "Potency": "inconclusive [inhibitor, partial curve, poor fit]"}, {"molecule": "CCOc1cc(/C=N/O)ccc1OCc1ccc(F)cc1", "Potency": "inconclusive [inhibitor, single point]"}]}]}
